In PubChem BioAssay AID1347043 (National Center for Advancing Translational Sciences (NCATS), 2019):
Out of some 76,000 compounds screened, about 1,900 (2.5%) were called active. This list was built around the results that the source calls inconclusive (neither active nor inactive); the mix of calls is not that of the screen. Calls follow the shape of the dose curve; as a rule, active = well fitted inhibition curve with a large enough effect; inconclusive = small, poorly fitted or top-dose-only effect; inactive = flat fitted curve, though single readings scatter. Where the call is inconclusive, the potency comes from a doubtful curve fit.

The compounds below were run against Luciferin 4-monooxygenase (Photinus pyralis) (UniProt P08659) (assay: Firefly luciferase inhibition profiling of diverse chemical library using quantitative high-throughput screening). Conditions: purified P. pyralis luciferase, luminescence, biochemical; activity change, negative = inhibition: at 115 µM (top of the series) unless noted.
Chain of UniProt P08659 (P08659 whole entry, looked up): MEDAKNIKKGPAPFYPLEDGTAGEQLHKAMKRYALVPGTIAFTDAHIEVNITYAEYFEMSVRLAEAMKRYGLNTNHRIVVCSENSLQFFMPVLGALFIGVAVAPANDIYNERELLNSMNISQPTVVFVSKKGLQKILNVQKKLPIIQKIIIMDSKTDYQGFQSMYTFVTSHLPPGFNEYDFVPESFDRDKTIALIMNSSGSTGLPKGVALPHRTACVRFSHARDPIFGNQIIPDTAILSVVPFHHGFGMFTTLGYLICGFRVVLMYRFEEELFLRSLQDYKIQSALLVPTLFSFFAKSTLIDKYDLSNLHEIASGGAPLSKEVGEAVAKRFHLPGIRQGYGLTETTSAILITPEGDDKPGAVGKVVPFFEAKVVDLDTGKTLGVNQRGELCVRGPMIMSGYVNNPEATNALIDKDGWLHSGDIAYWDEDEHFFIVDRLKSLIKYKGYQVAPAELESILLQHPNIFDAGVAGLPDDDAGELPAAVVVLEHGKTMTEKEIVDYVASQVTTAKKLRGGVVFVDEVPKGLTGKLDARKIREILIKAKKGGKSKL
Outline: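 Inhibitors were tested against purified firefly luciferase in a biochemical, low-substrate format (both substrates at 10uM) and luminescence measured with a CCD imager.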
% is scaled to controls: 0 for no effect and ±100 for the full control effect; potency is read from the fitted curve at half-maximal effect; tags tell the direction and shape of the fitted curve.
Also: nearly all actives have a fitted effect of over 65% in size.

Compound | Potency | activity change, negative = inhibition
O=C(c1ccc(CSc2ncccn2)o1)N1CCC2(CCOCC2)CC1 | inconclusive: 12.6 µM [inhibitor, partial curve, poor fit] | 
COCCN(C)Cc1nc(Cc2ccccc2Cl)no1 |  | inactive: -1.32%
Cc1c(-c2ccc(F)cc2)[nH]c2ccc(CNC(=O)c3n[nH]c4c3CCCC4)cc12 | active: 15.8 µM | 
CN1C[C@H]2CN(Cc3c[nH]c4ccccc34)CCN2C1=O | inconclusive: 112 µM [inhibitor, partial curve] | 
N#Cc1ccc(C(=O)N2Cc3[nH]cnc3C[C@H]2c2nc(-c3ccc4c(c3)OCO4)no2)cc1 | inconclusive: 44.7 µM [inhibitor, partial curve] | 
O=C(Nc1ccc(Cl)cc1)c1nc2c(o1)CCN(Cc1cccc(O)c1)CC2 | active: 25.1 µM | 
COc1ccccc1-c1cc2c(ccn2C)c(C(=O)NCC2CCN(C)C(=O)C2)n1 (stereo not drawn) |  | inactive: -0.657% [at 172 µM]
O=C(Nc1cccc(Cl)c1)C1CCN(C(=O)c2ncn3c2COC(c2ccc(F)cc2)C3)CC1 (stereo not drawn) | inconclusive: 44.7 µM [inhibitor, partial curve] | 
CC(=O)N[C@@H]1C=C[C@@H](c2c(C)nn(-c3ccc(C)c(Cl)c3)c2C)C1 | inconclusive: 14.1 µM [inhibitor, full curve] | 
COC[C@@H]1CN(C(=O)c2cc3ccccc3[nH]2)C[C@H]1c1ccncc1 | inconclusive: 3.16 µM [inhibitor, full curve, poor fit] | 
CC1CCN(C(=O)C2COC3(CCC(C)CC3)N2C(=O)c2ccc(F)cc2)CC1 (stereo not drawn) |  | inactive: -12.6%
CN1Cc2ccc(C(=O)Nc3ccc(OC(F)(F)F)cc3)cc2OCC1=O | inconclusive: 44.7 µM [inhibitor, partial curve] | 
CC(=O)N1CCC(N2C[C@H](O)C[C@H]2c2nc(-c3cccc(C)c3)no2)CC1 | active: 20 µM | 
CC(C)CN1C(=O)CCc2cc(NC(=O)c3ccc(N(C)C)cc3)ccc21 | inconclusive: 39.8 µM [inhibitor, partial curve] | 
COc1ccc(OCc2nc(C(=O)N3CCC4(CCCN(C)C4=O)C3)co2)cc1 (stereo not drawn) | inconclusive: 1.58 µM [inhibitor, full curve, poor fit] | 
CCCC1(CO)CCCN(Cc2cc(-c3ccc(C)cc3)no2)C1 (stereo not drawn) | inconclusive: 44.7 µM [inhibitor, partial curve] | 
CC1CCC2(CC1)NC(=O)N(CC(=O)Nc1ccc3c(c1)OCO3)C2=O (stereo not drawn) | inconclusive: 50.1 µM [inhibitor, partial curve] | 
CC(=O)Nc1cccc(-c2ncc3c(n2)OCCN(Cc2ccccc2)C3=O)c1 | inconclusive: 63.1 µM [inhibitor, partial curve] | 
Cc1ccc(-c2noc(-c3nc(C(C)C)no3)n2)cc1 | active: 7.08 µM | 
Cc1ncoc1C(=O)NCc1cc(Cl)cc2c(C)c(-c3ccccc3)[nH]c12 | inconclusive: 25.1 µM [inhibitor, partial curve] | 
Cc1cc2nc(CO[C@H]3CN(C4CCC4)C[C@H]3F)[nH]c2cc1C | inconclusive: 89.1 µM [inhibitor, partial curve] | 
Cc1ccc(-c2cc(N3CCC(CNC(=O)c4ccc5nc[nH]c5c4)CC3)n[nH]2)cc1 | active: 14.1 µM | 
N#Cc1ccc(CNC(=O)[C@@H]2Cc3nc[nH]c3CN2Cc2cc3ccccc3o2)cc1 |  | inactive: -5.06% [at 172 µM]

Compound | Potency | activity change, negative = inhibition
O=C(c1cccc2[nH]ccc12)N1CCC(n2cc(-c3nc(-c4ccccc4)no3)nn2)C1 (stereo not drawn) | inconclusive: 39.8 µM [inhibitor, full curve] | 
Cn1cc(CN(C(=O)c2ccc3nc(-c4ccccc4)cn3c2)C2CC2)cn1 | inconclusive: 89.1 µM [inhibitor, single point] | 
Cc1ccsc1C(=O)N1CCN(c2cc(-c3ccccc3)[nH]n2)CC1 |  | inactive: -4.33%
O=C(NCCc1ccncc1)c1cccc2c1CCN2C(=O)Nc1ccc(F)cc1 | active: 0.251 µM | 
O=C(Nc1cccc(-c2ccc(N3CCCC3)nn2)c1)Nc1c(F)cccc1F | active: 14.1 µM | 
COc1ccc(-n2nc(C)c([C@@H]3C=C[C@@H](NCc4ccc(N(C)C)cc4)C3)c2C)cc1 | active: 22.4 µM | 
CC(=O)N1CCc2nn(CC(=O)Nc3cccc(C)c3)c(=O)cc2C1 |  | inactive: -4.04%
CO[C@@H]1CO[C@H]2[C@@H]1OC[C@@H]2NC(=S)Nc1ccc(Cl)cc1 | inconclusive: 79.4 µM [inhibitor, partial curve, poor fit] | 
COc1ccc2nc([C@H]3CCN(Cc4ccc(NC(C)=O)cc4)C3)[nH]c2c1 | inconclusive: 89.1 µM [inhibitor, partial curve] | 
Cc1cn2nc(C(=O)NCc3ccccc3Cl)cc2c(=O)[nH]1 | inconclusive: 44.7 µM [inhibitor, partial curve] | 
O=C(c1cccc(F)c1)N1CC(Oc2cccc(-c3nc(-c4ccccc4)no3)c2)C1 | inconclusive: 28.2 µM [inhibitor, partial curve] | 
O=c1c2nc(Nc3cccc(F)c3)ccc2ncn1Cc1ccccc1 | inconclusive: 89.1 µM [inhibitor, partial curve, poor fit] | 
O=C(Nc1ccc2c(c1)CCC2)c1nnn2c1COC(c1ccc(F)cc1)C2 (stereo not drawn) | inconclusive: 35.5 µM [inhibitor, partial curve] | 
Clc1cnccc1CN1CCNc2cc(-c3ccccc3)ncc2C1 | active: 28.2 µM | 
NC(=O)Cc1c[nH]c2ncc(-c3ccc(Oc4ccccc4)cc3)cc12 |  | inactive: -26.2% [at 172 µM]
COc1ccc(CN2CC[C@H](c3nnc(-c4ccccc4)o3)C2)cc1 | inconclusive: 126 µM [inhibitor, partial curve, poor fit] | 
COc1cccc(-c2nnnn2[C@H]2CO[C@H]3[C@@H]2OC[C@@H]3NC(=O)c2ccc(N(C)C)cc2)c1 | inconclusive: 50.1 µM [inhibitor, partial curve] | 
CNC(=O)N1CC(c2noc(C3CCCN3C(=O)c3ccc(C)s3)n2)C1 (stereo not drawn) | inconclusive: 44.7 µM [inhibitor, partial curve, poor fit] | 
Cc1cc(CNC(=O)c2cc(-c3ccccc3)cc3c2OCCN3C)no1 |  | inactive: 2.29% [at 172 µM]
CN1CCOc2nc(-c3cccc(OC(F)(F)F)c3)ncc2C1=O | active: 3.16 µM | 
CCc1[nH]c2ccc(CNC(=O)Cc3cnc4c(C)cccn34)cc2c1C | inconclusive: 44.7 µM [inhibitor, partial curve] | 
CCc1ccc(NC(=O)N(C)CC2CCOC2)cc1 (stereo not drawn) | inconclusive: 50.1 µM [inhibitor, partial curve, poor fit] | 
CC(C)CCC(=O)N1CCC(N2C(=O)CCC2C(=O)NC(C)C)CC1 (stereo not drawn) |  | inactive: -7.57%

Compound | Potency | activity change, negative = inhibition
COc1ccc(Cl)cc1S(=O)(=O)N1CCCC(Cn2cnc3cccnc32)C1 (stereo not drawn) |  | inactive: 0%
COc1ccc(OCC2CCCN(C(=O)c3cn(C4CCCCC4)nn3)C2)cc1 (stereo not drawn) | active: 31.6 µM | 
S=C(Nc1ccccc1)N[C@H]1CO[C@H]2[C@@H]1OC[C@H]2OCc1ccccc1 |  | inactive: -0.518% [at 172 µM]
COc1ccc(CN2Cc3[nH]cnc3C[C@H]2c2nc(-c3ccccn3)no2)cc1 | active: 35.5 µM | 
Cc1cc(-c2cccc(CCOc3cnc4c(ccn4CC(=O)O)c3)c2)ccn1 | inconclusive: 126 µM [inhibitor, single point] | 
COc1ccc(C(=O)Nc2ccc([C@H]3OCC(=O)N(Cc4ccc(F)cc4)[C@@H]3CO)cc2)cc1 | active: 44.7 µM | 
O=C(c1cc2ccccc2[nH]1)N1CCN(c2cc(-c3ccccc3)[nH]n2)CC1 | inconclusive: 11.2 µM [inhibitor, full curve] | 
Cc1nc(CCNc2cc(C3CC(O)C3)ncn2)sc1C (stereo not drawn) | inconclusive: 44.7 µM [inhibitor, partial curve] | 
COCC(=O)N[C@H]1C[C@@H](c2nc(-c3ccc(OC(F)(F)F)cc3)no2)N(C)C1 | inconclusive: 89.1 µM [inhibitor, partial curve] | 
COCCN1C(=O)CS(=O)C12CCN(C(=O)Nc1ccc3c(c1)OCCO3)CC2 (stereo not drawn) | inconclusive: 28.2 µM [inhibitor, partial curve] | 
Cc1cc(F)ccc1OC1CN(C(=O)c2ccccc2)C1 | active: 17.8 µM | 
Cc1ccc(NC(=O)c2ccc3c(c2)N(C)C2CCCCCN2C3=O)c(F)c1 (stereo not drawn) | inconclusive: 35.5 µM [inhibitor, partial curve] | 
COc1cc2c(cc1OC)CN(c1cc(C3CC(O)C3)ncn1)CC2 (stereo not drawn) | inconclusive: 56.2 µM [inhibitor, partial curve, poor fit] | 
O=C(C1CCOCC1)N1CC(Oc2cccc(-c3nc(-c4ccccc4)no3)c2)C1 | active: 17.8 µM | 
COc1cc(CN2CCN(c3noc(C(C)C)n3)CC2CCO)cc(OC)c1 (stereo not drawn) |  | inactive: -8.4%
O=C1COc2ccc(-c3cccc(OC(F)(F)F)c3)nc2CN1 | inconclusive: 112 µM [inhibitor, single point] | 
Cc1nn2c(c1-c1ccccc1Oc1ccccc1)N(C(=O)Cc1ccccc1)CCC2 |  | inactive: -0.19% [at 172 µM]
Cc1ccc(C2Cn3nnc(C(=O)N4CCC(C(=O)NC5CCCCC5)CC4)c3CO2)cc1 (stereo not drawn) | inconclusive: 14.1 µM [inhibitor, partial curve] | 
O=C(Cc1cccc(Cl)c1)N1CCn2c(nnc2-c2ccccc2)C1 | active: 2.82 µM | 
Cc1ccc(NC(=O)c2ccc3c(c2)C(O)CCCCCN3C)cc1 (stereo not drawn) | inconclusive: 44.7 µM [inhibitor, partial curve] | 
CCN1CCN(Cc2cn(-c3ccccc3F)nc2-c2cc(C)sc2C)CC1 | inconclusive: 44.7 µM [inhibitor, partial curve, poor fit] | 
O=c1n(-c2ccncc2)nc2n1CCN(Cc1ccccc1)C2 | inconclusive: 100 µM [inhibitor, partial curve] | 
